# Assay results taken from US20240124563A1 (NANJING ZAIMING PHARMACEUTICAL, published 2024).
# B1: NB149-70 VHH-hFc (Fc fusion)
# chain: QVQLVESGGGLVQPGGSLRLSCAASGSIFSGNAVAWYRQAPGKEREAVAVITRDGDTKYADSVKGRFTISRYNAKNIAYLQMNSLKPEDTAVYYCNTARGAAVDSWGQGTQVTVSS[human IgG1 Fc with changes not written out]
# B2: NB149-34 VHH-hFc (Fc fusion)
# chain: QLQLVESGGGLVQPGGSLRLSCAASGSVNSITAMGWYRQGPGNERELVAVITDRGRASYADSVKGRFAISMDNDKHTVYLQMDSLKPEDTAVYYCNAHRRTWPHPGDYWGQGTQVTVSS[human IgG1 Fc with changes not written out]
# B3: NB148-88 VHH-hFc (Fc fusion)
# chain: QLQLVESGGGLVQPGGSHRLSCAVSVSTFTRYAMRWYRQAPGKEREWLTSIYSDGSSAYADSVKDRFTISLDNAKNMLYLQMNSLKPEDTAVYYCNANVDSKAYWGQGTQVTVAS[human IgG1 Fc with changes not written out]
# B4: NB149-95 VHH-hFc (Fc fusion)
# chain: QVQLVESGGGLVQAGGSLRLSCTASESGFSANYMGWYRQEAPGKERELVATINRFGSTNYADSVKGRFTISRDNAKNTVYLQMNSLKSEDTGVYYCRIMRPGNWYWGQGTQVTVSS[human IgG1 Fc with changes not written out]
# B5: NB148-25 VHH-hFc (Fc fusion)
# chain: QVQLVESGGGLVQAGGSLRLSCAASGSTFGRIVMRWYRQAQGKQREWVASIYDSGSTSYSDPVQGRFTISRDNARNTVYLQMNSLRPADTAVYYCNLGTALSSYWGQGTQVTVSS[human IgG1 Fc with changes not written out]
# B6: NB148-35 VHH-hFc (Fc fusion)
# chain: EVQVVESGGGLVQPGGSLRLSCGVSGSILALNTMRWYRQTPGNQREWVASIYSSGGSTGYADSVKGRFIISRDSAKNMMSLQMNSLKSEDTAVYYCNVQTPLNVYWGQGTQVTVSS[human IgG1 Fc with changes not written out]
# Biological target: T1, human MSLN-FL-his protein (human, UniProt Q13421 296-580)
# T1 construct: Made in HEK293E cells, purified on nickel column; also called hMSLN-FL-his; not shown: histidine tag
# Test: competitive ELISA on MSLN-FL-His; other antibody: NB148-46 (3.m5)
row,inhibition rate,Binder
1,64%,B1
2,53%,B2
3,-21%,B3
4,41%,B4
5,56%,B5
6,16%,B6

# Biological target: T1, human MSLN-FL-his protein
# T1 sequence (Q13421 other isoform, or with tags, fused parts or gaps): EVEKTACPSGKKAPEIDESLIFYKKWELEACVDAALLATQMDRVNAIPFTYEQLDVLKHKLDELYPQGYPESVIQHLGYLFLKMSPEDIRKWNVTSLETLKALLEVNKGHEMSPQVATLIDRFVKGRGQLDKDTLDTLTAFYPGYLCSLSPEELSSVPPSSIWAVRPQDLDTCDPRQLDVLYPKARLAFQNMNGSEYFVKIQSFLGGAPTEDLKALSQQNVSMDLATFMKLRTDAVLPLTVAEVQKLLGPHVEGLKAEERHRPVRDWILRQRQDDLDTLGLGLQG
# Test: competitive ELISA on MSLN-FL-His; other antibody: NB148-25 (3.m2)
row,inhibition rate,Binder
1,24%,B1
2,-13%,B2
3,76%,B3
4,7%,B4
5,85%,B5
6,75%,B6

# Biological target: T2, human MSLN full-length protein, recombinant, on CHO-K1 or HEK293T cells (human, UniProt Q13421 296-598)
# T2 construct: The background says that the precursor is cleaved by furin to the mature membrane form; also called hMSLN; CHO-K1-hMSLN-2C8
# Test: competitive FACS on CHO-K1-human MSLN-2C8 cells vs Biotin-Tab142; competitor at 20 nM
row,MFI of Biotin-Tab142,Binder
1,25100,B1
2,24600,B2
3,42600,B3
4,21400,B4
5,41600,B5
6,41100,B6

# Biological target: T3, chimeric human MSLN-R3 / chicken MSLN-R1-2 protein on HEK293T cells (clone A5) (chicken; human)
# T3 construct: range 327-514; Human R1-R2 replaced by chicken R1-R2; also called HEK293T-chickR1-2/hR3-A5; HEK293T-hR3/chickR1-2-A5
# Test: FACS, HEK293T-hR3/chickR1-2-A5 cells, antibody 20 nM
row,MFI,Binder
1,73,B1
2,73,B2
3,73,B3
4,95,B4
5,73,B5
6,73,B6

# Biological target: T1, human MSLN-FL-his protein
# Test: competitive ELISA on MSLN-FL-His; other antibody: Tab108 (R3) (3.m14)
row,inhibition rate,Binder
1,3%,B1
2,25%,B2
3,79%,B3
4,2%,B4
5,70%,B5
6,-19%,B6

# Biological target: T2, human MSLN full-length protein, …
# Test: competitive FACS on CHO-K1-human MSLN-2C8 cells vs Biotin-Tab142; competitor at 100 nM
row,MFI of Biotin-Tab142,Binder
1,20200,B1
2,17200,B2
3,45200,B3
4,20500,B4
5,40600,B6

# Biological target: T4, human MSLN protein endogenously expressed on tumor cells (Hela, OVCAR3) (human, UniProt Q13421 296-598)
# T4 construct: whole, on cells
# Test: FACS, OVCAR3 cells, antibody 20 nM
row,MFI,Binder
1,11400,B1
2,12200,B2
3,9370,B3
4,12800,B4
5,8540,B5
6,9220,B6

# Biological target: T1, human MSLN-FL-his protein
# Test: competitive ELISA on MSLN-FL-His; other antibody: NB149-31 (3.m7)
row,inhibition rate,Binder
1,47%,B1
2,71%,B2
3,37%,B3
4,13%,B4
5,24%,B5
6,-33%,B6

# Biological target: T4, human MSLN protein endogenously …
# Test: FACS, Hela cells
EC50,Max MFI,Binder
130 pM,303,B1
160 pM,382,B2
290 pM,310,B3
120 pM,388,B4
680 pM,394,B5
260 pM,318,B6

# Biological target: T2, human MSLN full-length protein, …
# Test: FACS, HEK293T-hMSLN-B8 cells, antibody 20 nM
row,MFI,Binder
1,22800,B1
2,23500,B2
3,30600,B3
4,28000,B4
5,29400,B5
6,29700,B6

# Biological target: T1, human MSLN-FL-his protein
# Test: competitive ELISA on MSLN-FL-His; other antibody: Tab107 (C) (1.m4)
row,inhibition rate,Binder
1,4%,B1
2,15%,B2
3,25%,B3
4,-2%,B4
5,-36%,B5
6,-290%,B6

# Biological target: T2, human MSLN full-length protein, …
# Test: competitive FACS on CHO-K1-human MSLN-2C8 cells vs Biotin-Tab142; competitor at 0.032 nM
row,MFI of Biotin-Tab142,Binder
1,42700,B1
2,43100,B2
3,44700,B3
4,42300,B4
5,41600,B5
6,42900,B6

# Biological target: T1, human MSLN-FL-his protein
# Test: SPR, antibody captured on Protein A chip, MSLN-FL-his injected, 1:1 model
Kd,koff,kon,Binder
795 pM,0.00116 s⁻¹,1.46e+06 M⁻¹ s⁻¹,B1
216 pM,0.000471 s⁻¹,2.18e+06 M⁻¹ s⁻¹,B2
2450 pM,0.00123 s⁻¹,499000 M⁻¹ s⁻¹,B3
23.4 pM,3.24e-05 s⁻¹,1.39e+06 M⁻¹ s⁻¹,B4
1590 pM,0.000358 s⁻¹,224000 M⁻¹ s⁻¹,B5
5310 pM,0.00131 s⁻¹,247000 M⁻¹ s⁻¹,B6

# Biological target: T2, human MSLN full-length protein, …
# Test: competitive FACS on CHO-K1-human MSLN-2C8 cells vs Biotin-Tab142; competitor at 0.16 nM
row,MFI of Biotin-Tab142,Binder
1,41000,B1
2,41700,B2
3,43200,B3
4,41400,B4
5,41500,B5
6,42000,B6

# Biological target: T2, human MSLN full-length protein, …
# Test: competitive FACS on CHO-K1-human MSLN-2C8 cells vs Biotin-Tab142; competitor at 0.8 nM
row,MFI of Biotin-Tab142,Binder
1,40400,B1
2,39700,B2
3,42000,B3
4,38000,B4
5,41800,B5
6,43200,B6

# Biological target: T2, human MSLN full-length protein, …
# Test: FACS, HEK293T-hMSLN-B8 cells, antibody 0.2 nM
row,MFI,Binder
1,1430,B1
2,847,B2
3,1250,B3
4,678,B4
5,784,B5
6,1050,B6

# Biological target: T4, human MSLN protein endogenously …
# Test: FACS, OVCAR3 cells, antibody 0.2 nM
row,MFI,Binder
1,1240,B1
2,1370,B2
3,1480,B3
4,1950,B4
5,1970,B5
6,1610,B6

# Biological target: T4, human MSLN protein endogenously …
# Test: FACS, OVCAR3 cells, antibody 2 nM
row,MFI,Binder
1,6440,B1
2,7150,B2
3,7140,B3
4,8930,B4
5,7740,B5
6,7480,B6

# Biological target: T2, human MSLN full-length protein, …
# Test: competitive FACS on CHO-K1-human MSLN-2C8 cells vs Biotin-Tab142; competitor at 0.0064 nM
row,MFI of Biotin-Tab142,Binder
1,42100,B1
2,42500,B2
3,41700,B3
4,42300,B4
5,42200,B5
6,39900,B6

# Biological target: T1, human MSLN-FL-his protein
# Test: competitive ELISA on MSLN-FL-His; other antibody: NB149-34 (3.m8)
row,inhibition rate,Binder
1,60%,B1
2,66%,B2
3,-24%,B3
4,17%,B4
5,46%,B5
6,32%,B6

# Biological target: T3, chimeric human MSLN-R3 / chicken …
# Test: FACS, HEK293T-hR3/chickR1-2-A5 cells, antibody 0.2 nM
row,MFI,Binder
1,91,B1
2,73,B2
3,73,B3
4,76,B4
5,73,B5
6,73,B6

# Biological target: T2, human MSLN full-length protein, …
# Test: competitive FACS on CHO-K1-human MSLN-2C8 cells vs Biotin-Tab142; competitor at 4 nM
row,MFI of Biotin-Tab142,Binder
1,33400,B1
2,31500,B2
3,43000,B3
4,29400,B4
5,41100,B5
6,41200,B6
